Results on 24 molecules are retold here after patent publication US7592316B2, “Peptides as NS3-serine protease inhibitors of hepatitis C virus” (Schering Corporation, priority 2000, dated 2009).

In general, Ki refers to a dissociation constant, usually derived from enzyme kinetics or from competition with a known ligand.

*1 amine or outer side, *2 acyl side, *3 side chain or, on linkers, in order; H or OH if unused. Where a SMILES comes first, the peptide text is derived from it. [ ]: non-standard residue; d: D form. The star is where a group is joined. Pro(3R,4S-CMe2) = CC1(C)[C@@H]2[C@@H](C(=O)O)NC[C@@H]21; X8 = O=C(C(=O)[*:2])C(CC1CC1)N[*:1]; Phg = N[C@H](C(=O)O)c1ccccc1; Boc = CC(C)(C)OC(=O)*

This test has as its target HCV NS3/NS4A protease (strain 1a) (Hepatitis C virus genotype 1a, UniProt P27958). Nature of the test: biochemical. To be noted: Table 6; HCV NS3/NS4A protease, 30° C., pH 6.5; read-out: Ki*.
As to `CC(C)(C)[C@H](NC(=O)OC1CC2CCC1C2)C(=O)N1C[C@H]2[C@@H]([C@H]1C(=O)NC(CC1CCC1)C(=O)C(N)=O)C2(Cl)Cl` (stereo partly drawn), the Ki was in the range of 1 to 100 nM.
On to `CN(C)C(=O)[C@@H](NC(=O)CNC(=O)C(=O)C(CCC(F)F)NC(=O)[C@@H]1[C@H]2CC3(CC3)C[C@H]2CN1C(=O)[C@@H](NC(=O)OC(C)(C)C)C(C)(C)C)c1ccccc1` (stereo partly drawn), for which the Ki was in the range of 1 to 100 nM.
Consider `CN(C)C(=O)[C@@H](NC(=O)CNC(=O)C(=O)C(CC1CCC1)NC(=O)[C@@H]1[C@H]2CC(C)(C)C[C@H]2CN1C(=O)[C@@H](NC(=O)OC(C)(C)C)C(C)(C)C)c1ccccc1` (stereo partly drawn), for which the Ki lay within 1 to 100 nM.
With `CN(C)C(=O)[C@@H](NC(=O)CNC(=O)C(=O)C(CC1CC1)NC(=O)[C@@H]1[C@H]2CC(C)(C)C[C@H]2CN1C(=O)[C@@H](NC(=O)OC(C)(C)C)C(C)(C)C)c1ccccc1` (stereo partly drawn) the figure was 1 to 100 nM; with `CN(C)C(=O)[C@@H](NC(=O)CNC(=O)C(=O)C(CCC(F)F)NC(=O)[C@@H]1[C@H]2CC(C)(C)C[C@H]2CN1C(=O)[C@@H](NC(=O)OC(C)(C)C)C(C)(C)C)c1ccccc1` (stereo partly drawn), 1 to 100 nM; with `CN(C)C(=O)C(NC(=O)CNC(=O)C(=O)C(CC1CC1)NC(=O)[C@@H]1[C@H]2CC(C)(C)O[C@H]2CN1C(=O)[C@@H](NC(=O)OC1C2(C)CCC(C2)C1(C)C)C1CCCCC1)c1ccccc1` (stereo partly drawn), 1 to 100 nM.
With `CCOC(=O)CCNC(=O)N[C@H](C(=O)N1C[C@H]2[C@@H]([C@H]1C(=O)NC(CC1CCC1)C(=O)C(N)=O)C2(C)C)C1CCCCC1` (stereo partly drawn) the figure was 1 to 100 nM; with `CC1(NC(=O)N[C@H](C(=O)N2C[C@H]3[C@@H]([C@H]2C(=O)NC(CC2(F)CCC2)C(=O)C(N)=O)C3(C)C)C(C)(C)C)CCCCC1` (stereo partly drawn), 1 to 100 nM; with `COC[C@@H](NC(=O)N[C@H](C(=O)N1C[C@@H]2OC(C)(C)C[C@@H]2[C@H]1C(=O)NC(CC1CC1)C(=O)C(=O)NCC(=O)NC(C(=O)N(C)C)c1ccccc1)C1CCCCC1)C(C)(C)C` (stereo partly drawn), 1 to 100 nM.
With `CC(C)(C)NC(=O)N[C@H](C(=O)N1CC(CNC(=O)OCc2ccccc2)C[C@H]1C(=O)NC(CC1CCC1)C(=O)C(N)=O)C(C)(C)C` (stereo partly drawn), the inhibitory constant (Ki) lay in the range of 101 to 1000 nM.
For the molecule `CC(C)(C)OC(=O)N[C@H](C(=O)N1C[C@H]2[C@@H]([C@H]1C(=O)NC(CC1CCC1)C(=O)C(N)=O)C21CC1)C(C)(C)C` (stereo partly drawn), the Ki fell in the range of 101 to 1000 nM.
With `CN(C)C(=O)[C@@H](NC(=O)CNC(=O)C(=O)C(CC1COC1)NC(=O)[C@@H]1[C@H]2CC(C)(C)O[C@H]2CN1C(=O)[C@@H](NC(=O)OC(C)(C)C)C1CCCCC1)c1ccccc1` (stereo partly drawn) the figure was 1 to 100 nM; with `CC1(C)C[C@H]2[C@H](CN(C(=O)C(NC(=O)NC34CC5CC(CC(C5)C3)C4)C3CCCCC3)[C@@H]2C(=O)NC(CC2CCC2)C(=O)C(N)=O)O1` (stereo partly drawn), 101 to 1000 nM; with `CC(C)(C)[C@H](NC(=O)NC12CC3CC(CC(C3)C1)C2)C(=O)N1C[C@H]2[C@@H]([C@H]1C(=O)NC(CC1CC1)C(=O)C(N)=O)C2(Cl)Cl` (stereo partly drawn), 1 to 100 nM.
Regarding `CC(C)(C)[C@H](NC(=O)NC12CC3CC(CC(C3)C1)C2)C(=O)N1C[C@H]2[C@@H]([C@H]1C(=O)NC(CC1CCC1)C(=O)C(N)=O)C2(Cl)Cl` (stereo partly drawn), the Ki is 1 to 100 nM.
In the case of `NC(=O)C(=O)C(CC1CCC1)NC(=O)[C@@H]1[C@@H]2[C@H](CN1C(=O)[C@@H](NC(=O)NC13CC4CC(CC(C4)C1)C3)C1CCCCC1)C2(Cl)Cl` (stereo partly drawn) it was 1 to 100 nM; in that of `CC(C)(C)OC(=O)N[C@H](C(=O)N1C[C@H]2[C@@H]([C@H]1C(=O)NC(CC1CC1(F)F)C(=O)C(N)=O)C2(C)C)C(C)(C)C` (stereo partly drawn), 1 to 100 nM.
In the case of `CC(C)(C)OC(=O)N[C@H](C(=O)N1C[C@H]2[C@@H]([C@H]1C(=O)NC(CC1CC1(F)F)C(=O)C(N)=O)C2(C)C)C1CCCCC1` (stereo partly drawn) it was 1 to 100 nM; in that of `CC1(NC(=O)N[C@H](C(=O)N2C[C@H]3[C@@H]([C@H]2C(=O)NC(CC2CC2(F)F)C(=O)C(N)=O)C3(C)C)C2CCCCC2)CCCCC1` (stereo partly drawn), 1 to 100 nM; in that of `CC1(NC(=O)N[C@H](C(=O)N2C[C@H]3[C@@H]([C@H]2C(=O)NC(CC2CC2(F)F)C(=O)C(N)=O)C3(C)C)C(C)(C)C)CCCCC1` (stereo partly drawn), 1 to 100 nM.
Take `CN(C)C(=O)[C@@H](NC(=O)CNC(=O)C(=O)C(CC1CC1)NC(=O)[C@@H]1[C@H]2CC(C)(C)O[C@H]2CN1C(=O)[C@@H](NC(=O)OC(C)(C)C)C(C)(C)C)c1ccccc1` (stereo partly drawn): the Ki was in the range of 1 to 100 nM.
Consider `CN(C)C(=O)[C@@H](NC(=O)CNC(=O)C(=O)C(CC1CC1)NC(=O)[C@@H]1[C@H]2CC(C)(C)O[C@H]2CN1C(=O)[C@@H](NC(=O)NC(C)(C)C)C1(C)CCCCC1)c1ccccc1` (stereo partly drawn), for which the Ki fell in the range of 1 to 100 nM.
With `CC1(C)C2CN(C(=O)[C@@H](NC(=O)NC3(C(F)(F)F)CC3)C(C)(C)C)[C@H](C(=O)NC(CC3CCC3)C(=O)C(N)=O)C21` (stereo partly drawn) the figure was 1 to 100 nM; with `CC(C)[C@H](NC(=O)OC(C)(C)C)C(=O)N1C[C@H]2[C@@H]([C@H]1C(=O)NC(CC1CC1)C(=O)C(=O)NCC(=O)N[C@H](C(=O)N(C)C)c1ccccc1)C2(C)C` (stereo partly drawn) (Boc-V[Pro(3R,4S-CMe2)][X8]G[Phg]-NMe2), 1 to 100 nM.
